Experimental data published in patent publication US20250074955A1, “MODIFIED LOW MOLECULAR WEIGHT GLUTENIN SUBUNIT AND USES THEREOF” (Ukko Inc., priority 2022, published 2025).
At least one compound was matched to its structure with a doubt left. Where no end group is shown, it is not given here.

Tests used:
Assay in all cases: MHC class II binding competition assay with radiolabeled probe peptide
Settings in all cases: competition with MHC class II bound radiolabeled probe peptide, purified MHC, 2-4 days incubation
HLA-DQ2.5 = HLA-DQ2.5 (Homo sapiens, UniProt P01909+P01920, A45G/A70V/D89A/E106A/E77G/E98D/H199R/L107V/N214S/P84L/P87L/T103K/T109R/T172A/T60S/V78E/V99I/Y58L/Y62S/Y69I/Y79F)
HLA-DQ8 = HLA-DQ8 (Homo sapiens, UniProt P01909+P01920, A209T/A45G/C70Q/D89A/DUP78-78/E183D/E77G/F237L/G63E/H199R/I129T/K197E/L178F/L74F/L98V/Q57E/Q76R/S185I/S97I/T217I/T49S/V73L/Y58L)
HLA-DQ7.5 = target: T1, HLA-DQ7.5 (Homo sapiens, UniProt P01909+P01920)
T1 construct: made in house
Description: In-vitro testing of modified gluten peptides was performed by a Major histocompatibility complex (MHC class II) binding assay (Sidney J. et. al. Current protocols in immunology 100.1 (2013)). Briefly, competition assays using different concentrations of WT and modified low molecular weight glutenin subunit (LMW-GS) peptides were conducted by diluting the peptides in NP40 buffer, and incubation for 2-4 days with purified MHC and a radiolabeled known MHC binding peptide (peptide probe). MHC class II molecules were purified by affinity chromatography, and peptides were radiolabeled using the chloramine T method. After the incubation period, the bound and unbound radiolabeled species were separated, and their relative amounts were determined by either size-exclusion gel-filtration chromatography or monoclonal antibody capture of MHC. The percentage of bound radioactivity was then determined. For each modified peptide, IC50 of WT and modified peptide were calculated. The known gluten peptide epitopes were analyzed for MHC binding as a positive control, both in the non-deamidated and in the deamidated form.
Tables I and II list the measured IC50 values from competition assays between the specified peptides and an MHC class II bound probe peptide.

HLA-DQ2.2 = HLA-DQ2.2 (Homo sapiens, UniProt P01909+P01920, A45G/A70V/C70K/D167G/D89A/E106A/E183D/E77G/E98D/F237L/F77L/G63E/H199R/I129T/K197E/L107V/L178F/L74F/N214S/P84L/P87L/Q57E/Q76R/R75H/S185I/S97I/T103K/T109R/T172A/T60S/V73L/V78E/V99I/Y48F/Y58L/Y62S/Y69I/Y79F)

Compound: NC(=O)CC[C@H](NC(=O)[C@H](CCC(N)=O)NC(=O)[C@H](CO)NC(=O)[C@H](Cc1ccccc1)NC(=O)[C@@H]1CCCN1C(=O)[C@H](CO)NC(=O)[C@H](CCC(N)=O)NC(=O)[C@H](CCC(N)=O)NC(=O)[C@H](CCC(N)=O)NC(=O)[C@H](CCC(N)=O)NC(=O)[C@H](CO)NC(=O)[C@H](Cc1ccccc1)NC(=O)[C@@H]1CCCN1C(=O)[C@@H]1CCCN1C(=O)[C@@H](N)CCC(N)=O)C(=O)O [SEQ ID NO: 68, reference compound]
- IC50 (HLA-DQ2.5): 31.6 µM
- IC50 (HLA-DQ8): 12.8 µM

Compound: QPFFSHQQRSGFSQQ [SEQ ID NO: 83]
- IC50 (HLA-DQ2.5): > 40 µM
- IC50 (HLA-DQ8): 39.2 µM

Compound: QPPFSEQQESPFSQQ [SEQ ID NO: 69, reference compound]
- IC50 (HLA-DQ2.5): 0.158 µM
- IC50 (HLA-DQ8): 1.14 µM

Compound: QPPFSHQRPPFSQQQ [SEQ ID NO: 82]
- IC50 (HLA-DQ2.5): > 40 µM
- IC50 (HLA-DQ8): > 40 µM

Compound: QQPFPQEQRSQFSQQ [SEQ ID NO: 75]
- IC50 (HLA-DQ2.5): > 40 µM
- IC50 (HLA-DQ8): > 40 µM

Compound: QQPPFSEQEQPSSQQ [SEQ ID NO: 77]
- IC50 (HLA-DQ2.5): 32.3 µM
- IC50 (HLA-DQ8): 31.5 µM

Compound: QQPPFWQHQPPFSQQ [SEQ ID NO: 76]
- IC50 (HLA-DQ2.5): 37.4 µM

Compound: QSPFPEQQEQHQQLQ [SEQ ID NO: 185]
- IC50 (HLA-DQ2.5): > 40 µM
- IC50 (HLA-DQ7.5): > 40 µM
- IC50 (HLA-DQ8): 37.9 µM
- IC50 (HLA-DQ2.2): > 40 µM
